Assay results: ChEMBL document CHEMBL4888484, “Replenishing the malaria drug discovery pipeline: Screening and hit evaluation of the MMV Hit Generation Library 1 (HGL1) against asexual blood stage Plasmodium falciparum ,using a nano luciferase reporter read-out” (2022)
In all, about 150,000 compounds went through this assay and about 540 (0.36%) showed an effect of 50% or more. Some of the results follow.

Each compound was assayed on Plasmodium falciparum (assay: Primary screen in NF54 nanoGlo assay, in single point, at 2uM, 72h; a lower Z score goes with more inhibition). Settings: timepoint 72 hour.
Type: functional, Erythrocyte
In the case of `Cn1cc(C[C@@H](CNS(=O)(=O)c2ccc3ccccc3c2)C(N)=O)cn1`, the “% Inhibition” value is reported as -15% and the Z score is reported as 2.06. For `CCn1nnc(NC(=O)c2cccs2)n1`, the “% Inhibition” value was 0% and the Z score was -0.05. With `Cc1csc(NC(=O)C2CCN(C(=O)CCOc3ccccc3)CC2)n1` the “% Inhibition” value was -45% and the Z score was 5.32. In the case of `O=C(CC1CCCC1)Nc1c(-c2cccc(F)c2)n[nH]c1C1CC1`, the “% Inhibition” value is reported as -9% and the Z score is reported as 0.86. In the case of `CC1C(=O)N(CC(O)CCc2ccccc2)C(=O)C1C` (centres undefined), the “% Inhibition” value is reported as 0% and the Z score is reported as 0.05. With `Cc1cnc(CN[C@@H](C)c2ccc(Br)cc2)s1` the “% Inhibition” value was -15% and the Z score was 2.34. For `CNc1ccccc1C(=O)NC[C@H]1CCN(Cc2cnc(C)nc2)C1`, the “% Inhibition” value was -11% and the Z score was 1.96. For `CCCc1nnc2sc(-c3ccc[nH]3)nn12`, the “% Inhibition” value was -4% and the Z score was 0.36. `Cc1n[nH]c(=O)c2cc3c(C)n[nH]c(=O)c3cc12` was tested, and the “% Inhibition” value was -10% and the Z score was 1.05. With `CN1CCCC1C(=O)NC(c1c(F)cccc1F)C(F)(F)F` (centres undefined) the “% Inhibition” value was -20% and the Z score was 3.85. `COC(=O)C12CCCC1CN(CC(=O)NC(C)(C)C)C2` (centres undefined) was tested, and the “% Inhibition” value was -7% and the Z score was 0.82. With `COc1c(F)cc(-c2cn(C[C@H]3COCCO3)nn2)cc1Cl` the “% Inhibition” value was -10% and the Z score was 1.87. In the case of `Cn1c(CN2CCN(C(=O)c3ccccc3)CC2)cc(=O)n(C)c1=O`, the “% Inhibition” value is reported as 0% and the Z score is reported as 0.03. In the case of `COc1c2c(c(S(=O)(=O)NC3CCCC3)c3c1C(=O)N(C)CC3)OCO2`, the “% Inhibition” value is reported as -11% and the Z score is reported as 1.71. For `O=C(c1cccc(Oc2ccc(Cl)cc2)n1)N1CC[C@@H](O)C1`, the “% Inhibition” value was -7% and the Z score was 0.6. In the case of `CCC(CC)CN(CC)CC(=O)Nc1c(C)n[nH]c1C`, the “% Inhibition” value is reported as -6% and the Z score is reported as 0.82. With `C[C@@H](CCC(=O)NCCc1ccc(Cl)cc1)N1CCCC1` the “% Inhibition” value was 2% and the Z score was -0.26. With `O=C(c1ccccc1)c1ccc2n1CC[C@H]2C(=O)Nc1cc(F)cc(F)c1` the “% Inhibition” value was 32% and the Z score was -3.61. In the case of `CN1CCN(C(=O)CN2C(=O)CN(C(=O)Nc3ccccc3)c3ccccc32)CC1`, the “% Inhibition” value is reported as -11% and the Z score is reported as 1.57. In the case of `COCCCNC(=O)C(=O)Nc1ccnn1C1CCCCC1`, the “% Inhibition” value is reported as 31% and the Z score is reported as -0.47. For `O=C(O)C[C@@H]1CCN(C(=O)Nc2ccccc2)C[C@@H]1Cc1nc2ccccc2[nH]1`, the “% Inhibition” value was -11% and the Z score was 1.79. In the case of `C[C@H]1CN(Cc2cccn2C(F)F)CC(=O)N1`, the “% Inhibition” value is reported as -4% and the Z score is reported as 0.69. `CN=C(NCC(=O)N(C)CC(F)(F)F)NCc1ccc(C)cc1` was tested, and the “% Inhibition” value was 34% and the Z score was -1.21. With `COC(=O)[C@H]1CC[C@H](C(=O)Nc2nccc(C)n2)CC1` the “% Inhibition” value was -6% and the Z score was 0.99. `O=C(c1cccc(-n2cncn2)c1)N1CCCC1` was tested, and the “% Inhibition” value was -11% and the Z score was 1.02. For `CCC1(C)CN(C(=O)NCc2nnc(C3CC3)s2)C1`, the “% Inhibition” value was -5% and the Z score was 0.71. With `C[C@H]1CN(C)c2ccccc2-[n+]2ccsc21` the “% Inhibition” value was 3% and the Z score was -0.49. With `CNS(=O)(=O)Cc1cccc(CNc2ccc3nccn3n2)c1` the “% Inhibition” value was -7% and the Z score was 0.71. In the case of `CN(CCCc1cnn(C)c1)[C@H]1CN(Cc2ccoc2)C[C@@H]1O`, the “% Inhibition” value is reported as -11% and the Z score is reported as 1.06. In the case of `COc1cccc(CNC(=O)N2CCCS(=O)(=O)CC2)n1`, the “% Inhibition” value is reported as 9% and the Z score is reported as -1.16. For `Cc1ccc(CN(Cc2ccc(C(O)(c3ccccc3)c3ccccc3)o2)C2CC2)o1`, the “% Inhibition” value was -11% and the Z score was 1.36. With `CC(C)[C@@H]1CCO[C@@H]1c1nc(C2CCS(=O)(=O)C2)no1` (some centres undefined) the “% Inhibition” value was 2% and the Z score was -0.17. With `CN1CCN(C(=O)c2ccc3nc(C4CC4)oc3c2)[C@@H](c2ccccc2)C1` the “% Inhibition” value was 19% and the Z score was -1.66. In the case of `CN(C1CC1)S(=O)(=O)NCC1(c2cccc(OC(F)(F)F)c2)CCC1`, the “% Inhibition” value is reported as 0% and the Z score is reported as 0.03. `Cc1cnn(CCC(=O)NC2CCN(CC3CCCO3)CC2C)c1` (centres undefined) was tested, and the “% Inhibition” value was 4% and the Z score was -0.45. `O=S(=O)(CCOc1ccc(F)cc1)N[C@H]1COC[C@@H]1O` was tested, and the “% Inhibition” value was -13% and the Z score was 1.67. `CCn1cc(C(=O)N[C@@]23CCCC[C@@H]2NC(=O)C3)c(C2CC2)n1` was tested, and the “% Inhibition” value was -1% and the Z score was 0.18. For `Cc1occc1CN(C)c1nnc([C@]2(C)CCCO2)n1C`, the “% Inhibition” value was -4% and the Z score was 0.4. `Cc1ncccc1C(=O)NCCc1ncc(C)n1C1CCCCCC1` was tested, and the “% Inhibition” value was 1% and the Z score was -0.15. In the case of `CC(C)n1cc(CNc2ccc3nccc(O)c3c2)cn1`, the “% Inhibition” value is reported as 0% and the Z score is reported as -0.06. With `CCOc1cc(CNC2CCCCC2)cc(Cl)c1OCc1ccccc1Cl` the “% Inhibition” value was 1% and the Z score was -0.09. In the case of `O=C(NCCc1csc(-c2ccccc2)n1)C1CCN(C(=O)Cc2cccs2)CC1`, the “% Inhibition” value is reported as -8% and the Z score is reported as 1.01. In the case of `O=C(Cc1nnc(-c2ccncc2)o1)NCc1ccccc1`, the “% Inhibition” value is reported as 2% and the Z score is reported as -0.25. For `Cn1ccnc1[C@H]1CCN(c2nccn(C)c2=O)C1`, the “% Inhibition” value was -12% and the Z score was 1.63. `COc1ccc(-c2ccc(=O)n(-c3c(C)noc3C)n2)cc1S(=O)(=O)N1CCCCC1` was tested, and the “% Inhibition” value was 2% and the Z score was -0.2. `Cc1nc(N2CC[C@H](S(N)(=O)=O)C2)nc(C)c1CC(C)C` was tested, and the “% Inhibition” value was -8% and the Z score was 0.71. For `Cc1nn(C)cc1S(=O)(=O)N1CCC2(CCC(=O)N(C(C)C)C2)CC1`, the “% Inhibition” value was -3% and the Z score was 0.57. In the case of `COc1cc(C)c(CN2CCC(CCC(=O)O)CC2)c(C)n1`, the “% Inhibition” value is reported as -2% and the Z score is reported as 0.24. `O=C(Cn1cncn1)N1CC[C@H](Oc2ccccn2)C1` was tested, and the “% Inhibition” value was -11% and the Z score was 2.04. In the case of `Cc1cnc(NC(=O)[C@H]2CCc3cnn(C)c3C2)c(Br)c1`, the “% Inhibition” value is reported as -7% and the Z score is reported as 0.86. For `CCN1CCN(c2c(CN(C(=O)c3ccc(Cl)cc3Cl)C(C)C)c(C)nn2-c2ccccc2)CC1`, the “% Inhibition” value was -10% and the Z score was 0.85. For `Cc1cc(CN(C)c2ccnc3cc(Br)cnc23)no1`, the “% Inhibition” value was 12% and the Z score was -0.99. For `CCC(O)CNC(CC)c1c(C)nn(C)c1C` (centres undefined), the “% Inhibition” value was -2% and the Z score was 0.18. For `O=C(COc1ccc(Cl)cc1)N1CC[C@H](Oc2ccc3ccccc3n2)C1`, the “% Inhibition” value was -18% and the Z score was 3.35. In the case of `Cc1c(Cl)cccc1OCC(=O)N(CCC(=O)O)CC(C)C`, the “% Inhibition” value is reported as -2% and the Z score is reported as 0.23. `Nc1cc(-c2cc(O)cc(CC[C@H]3CCCCN3)c2)ccn1` was tested, and the “% Inhibition” value was 9% and the Z score was -1.53. `CC(C)c1nc(CN2CCN(c3ccccc3F)CC2)cc(=O)[nH]1` was tested, and the “% Inhibition” value was -9% and the Z score was 1.44. For `CNc1ncnc2cc(C(=O)NCc3ccn(C(C)C)n3)ccc12`, the “% Inhibition” value was -9% and the Z score was 1.83. For `CCO[C@@H](C)c1nc(CN(C)C(=O)c2n[nH]c3ccccc23)cs1`, the “% Inhibition” value was -7% and the Z score was 0.71. In the case of `Cc1ccc(C(=O)N2CCC3(CC2)CN(C)CCCN3C)cc1F`, the “% Inhibition” value is reported as -6% and the Z score is reported as 1.16. With `CC(C)c1nn(C)cc1C(=O)N1CC(CO)C1` the “% Inhibition” value was -7% and the Z score was 1.2. For `Cc1ncsc1CN1CC(c2nc(CCN(C)C(=O)C3CCOCC3)no2)C1`, the “% Inhibition” value was -6% and the Z score was 0.76. With `Cc1ncsc1CNc1ccc2nc(N(C)C)oc2c1` the “% Inhibition” value was 4% and the Z score was -0.76. In the case of `Cc1ccc(CNC(=O)[C@@]23CCCC[C@H]2N(C2CC2)S(=O)(=O)CC3)o1`, the “% Inhibition” value is reported as -15% and the Z score is reported as 1.71. With `CCc1nsc(NCC(=O)N2CCCO2)n1` the “% Inhibition” value was -11% and the Z score was 2.1. For `CC(C)(C)C(=O)N1CCc2ccc(OCc3ccc(C(=O)NCCN4CCCC4)o3)cc2[C@@H]1c1cccc(F)c1`, the “% Inhibition” value was -1% and the Z score was 0.15. With `CC(C)c1ncc(C(=O)OCCN2C(=O)CNC2=O)s1` the “% Inhibition” value was -5% and the Z score was 0.84. For `COCCC[C@H]1CCCCN1C(=O)c1ccc2[nH]ccc2c1`, the “% Inhibition” value was -7% and the Z score was 1.38. In the case of `O=C(c1ccccn1)N1C[C@H]2CC[C@@H](C1)N(C(=O)c1ccc3cc[nH]c3c1)C2`, the “% Inhibition” value is reported as 6% and the Z score is reported as -0.62. For `Cc1nc(CC(C)C)oc1C(=O)N[C@H]1CCCc2sccc21`, the “% Inhibition” value was -9% and the Z score was 1.22. With `CN1CCN(CC(C)(C)NC(=O)N2CC[C@H]2c2ccc(F)cc2)CC1` the “% Inhibition” value was 7% and the Z score was -1.22. `C[C@]1(c2ccccc2)CCC(=O)N(CCC(=O)O)C1` was tested, and the “% Inhibition” value was -7% and the Z score was 1.04. With `O=C(Nc1nnc(-c2ccccc2)o1)c1ccc(Cl)cc1` the “% Inhibition” value was -16% and the Z score was 1.65. For `Cc1n[nH]c(C)c1Cc1nncn1-c1ccc(Cl)cc1`, the “% Inhibition” value was -4% and the Z score was 0.8. `CCCCc1nc(C)c(C(=O)NC(C)(C)C(=O)O)s1` was tested, and the “% Inhibition” value was 8% and the Z score was -0.89. For `O=c1[nH]cnc2c1nc(N1CCCCC1)n2[C@@H]1O[C@H](CO)[C@@H](O)[C@H]1O`, the “% Inhibition” value was -5% and the Z score was 0.63. `CCCCn1ccc(=O)c2c(C(F)(F)F)nccc21` was tested, and the “% Inhibition” value was -15% and the Z score was 1.95. `NC(=O)c1cc(OC2CCN(C(=O)c3coc(CC4CC4)n3)CC2)ccn1` was tested, and the “% Inhibition” value was 2% and the Z score was -0.4. For `O=C(CC1(CC(=O)N2CCC2)CCCCC1)N1CCC1`, the “% Inhibition” value was -7% and the Z score was 1.01. For `O=C(c1ccc2sccc2c1)N1CCC[C@H](O)C1`, the “% Inhibition” value was -16% and the Z score was 1.66. With `Cc1[nH]ncc1CCCNc1ccc(C#N)cn1` the “% Inhibition” value was -14% and the Z score was 1.54. In the case of `FC(F)(F)[C@H](NCc1nc(C2CC2)no1)c1cccc2ccccc12`, the “% Inhibition” value is reported as 4% and the Z score is reported as -0.55. `CN(C)CCNC(=O)Cc1cccs1` was tested, and the “% Inhibition” value was -20% and the Z score was 2.69. `O=C(CCC1CCN(Cc2cccnc2)CC1)N1CCc2ccccc2C1` was tested, and the “% Inhibition” value was -11% and the Z score was 2.03. `CC(=O)Nc1ccc(C(=O)N(Cc2ccccc2F)C2(C(=O)NCc3ccccc3)CCN(C(C)=O)CC2)cc1` was tested, and the “% Inhibition” value was 7% and the Z score was -0.99. In the case of `C[C@H](NC(=O)c1nnc2n1CCCCC2)c1cccnc1`, the “% Inhibition” value is reported as -5% and the Z score is reported as 0.99. `O=C(NCCN1CCN(c2nc(Cc3ccc(Cl)cc3)ns2)CC1)c1ccc(F)cc1` was tested, and the “% Inhibition” value was -15% and the Z score was 2.6.
